Laboratory results from patent US20220403048A1, “BINDING MOLECULES TO ARGINASE II [ARG2]” (Cancer Research Technology Limited, priority 2019, published 2022).

Molecular target: T1, monomeric ARG2 (Homo sapiens, UniProt P78540, E275Q)
T1 construct: human ARG2 (aa23-354); His10 (C); made in house; host or cells: E. coli
T1 sequence (P78540 23-354 E275Q): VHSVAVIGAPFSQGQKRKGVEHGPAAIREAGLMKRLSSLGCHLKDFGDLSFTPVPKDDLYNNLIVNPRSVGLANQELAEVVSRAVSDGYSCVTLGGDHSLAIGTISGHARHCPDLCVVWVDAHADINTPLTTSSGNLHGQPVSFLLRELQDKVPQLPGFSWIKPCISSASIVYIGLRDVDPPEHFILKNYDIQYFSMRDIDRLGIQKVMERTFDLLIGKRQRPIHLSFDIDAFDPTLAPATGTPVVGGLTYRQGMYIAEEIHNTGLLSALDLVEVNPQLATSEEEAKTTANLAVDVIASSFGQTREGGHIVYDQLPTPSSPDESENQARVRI
Assay: Human monomeric ARG2 enzyme inhibition assay
Format: biochemical
Details: purified recombinant human IgG1, FIG. 5
Description: ARG2 specific recombinant IgG1 were screened for their ability to inhibit enzymatic activity of monomeric ARG2. In this assay, the ability of ARG2 specific recombinant IgG1 to inhibit the enzymatic activity of monomeric ARG2 was determined by measuring the production of urea, the product of L-arginine turnover by monomeric ARG2.
IC50 values were determined by testing a dilution series of the ARG2 specific recombinant IgG1, prepared in TBS.
10 μl of ARG2 specific recombinant IgG1 (dilution series) were added to a Greiner Bio-One® 384 well assay plate (Greiner Bio-one, UK; cat: 781901). […]
Urea was detected by the simultaneous addition of equal volumes of O-Phthaldialdehyde (1.5 mM O-Phthaldialdehyde, 7% H2SO4, 0.03% Brij L23) and N-(1-Napthyl)ethylenediamine (1.66 mM N-(1-Napthyl)ethylenediamine, 81 mM Boric acid, 21% H2SO4, 0.03% Brij L23) followed by an 18 minute incubation at room temperature before the colorimetric product was quantified on the Pherastar by measuring absorbance at 505 nm.
ARG2 specific recombinant IgG1 were tested alongside N-Hydroxyl-L-Arginine (a small molecule competitive inhibitor of ARG2) as a positive control and NIP228 (irrelevant isotype control antibody) as a negative control. Data points were plotted and IC50 values determined using a four parameter fit in GraphPad Prism (FIG. 5).

B1: C0020187: anti-ARG2 antibody, parent lead isolation clone, VH SEQ ID NO: 12, VL SEQ ID NO: 17 (antibody, listed as Homo sapiens, V domains shown)
VH: [about 100 residues not given here]LRADLGLYMDLWGRGTLVTVSS
VL: QSVLTQPPSVSAAPGQKVTISCSGSSSNIGNHYVSWYQQLPGTAPKLLIYDNSERPSGIPDRFSGSKSGTSATLGITGLQTGDEADYYCGTWDSSLSALVFGGGTKLTVL
modifications: C0020187
  inhibition of the activity of human monomeric ARG2: inhibited
